Laboratory results published in paper PMC4336329 (PLoS ONE, 2015).
Out of some 310,000 compounds screened, about 2,200 (0.71%) showed an effect of 50% or more. Effects have a minus sign here. The list shows a part of the results.

Target: human ether-à-go-go-related gene (hERG) potassium channel (human, UniProt Q12809)
Assay: primary screen, population patch clamp on CHO cells stably expressing hERG

Sequence of human ether-à-go-go-related gene (hERG) potassium channel (Q12809 whole entry, looked up): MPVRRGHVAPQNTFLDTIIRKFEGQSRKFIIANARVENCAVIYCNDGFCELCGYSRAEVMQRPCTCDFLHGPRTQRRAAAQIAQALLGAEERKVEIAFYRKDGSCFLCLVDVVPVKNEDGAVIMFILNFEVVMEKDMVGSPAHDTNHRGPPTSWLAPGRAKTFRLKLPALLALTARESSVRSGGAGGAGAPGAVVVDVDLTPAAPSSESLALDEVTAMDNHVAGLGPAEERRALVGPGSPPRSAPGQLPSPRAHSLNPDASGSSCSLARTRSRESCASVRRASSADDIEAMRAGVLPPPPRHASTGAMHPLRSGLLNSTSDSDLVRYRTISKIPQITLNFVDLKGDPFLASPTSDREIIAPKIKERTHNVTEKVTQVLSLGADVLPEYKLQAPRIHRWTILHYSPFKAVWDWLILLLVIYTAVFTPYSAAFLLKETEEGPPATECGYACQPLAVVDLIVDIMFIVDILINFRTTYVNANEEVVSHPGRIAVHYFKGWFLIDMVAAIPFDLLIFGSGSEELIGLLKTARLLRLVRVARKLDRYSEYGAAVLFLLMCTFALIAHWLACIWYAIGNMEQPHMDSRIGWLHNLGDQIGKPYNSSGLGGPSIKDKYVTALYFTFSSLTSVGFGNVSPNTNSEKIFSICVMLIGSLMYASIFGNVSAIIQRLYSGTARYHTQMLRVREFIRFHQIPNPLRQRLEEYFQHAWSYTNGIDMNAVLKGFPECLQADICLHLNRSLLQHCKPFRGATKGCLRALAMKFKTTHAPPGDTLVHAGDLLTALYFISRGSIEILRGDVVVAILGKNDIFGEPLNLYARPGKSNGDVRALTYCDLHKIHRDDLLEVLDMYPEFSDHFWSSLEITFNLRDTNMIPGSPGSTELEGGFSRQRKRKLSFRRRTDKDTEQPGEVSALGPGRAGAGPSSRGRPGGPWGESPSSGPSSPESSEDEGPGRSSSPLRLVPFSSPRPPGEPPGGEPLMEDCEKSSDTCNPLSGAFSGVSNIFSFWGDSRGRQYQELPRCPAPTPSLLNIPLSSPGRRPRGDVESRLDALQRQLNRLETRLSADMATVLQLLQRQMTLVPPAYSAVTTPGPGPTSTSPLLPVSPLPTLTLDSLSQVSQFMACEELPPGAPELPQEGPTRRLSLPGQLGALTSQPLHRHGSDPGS

| Compound | hERG current change (%, negative = inhibition) at 1uM [%] |
| --- | --- |
| CC(=O)c1c(C)[nH]c(C(=O)Nc2cccc(C)c2C)c1C | 4.47 |
| COc1ccc(C(=O)Nc2c(Cl)cc(Cl)cc2C(=O)NCc2ccco2)cc1 | 22.7 |
| Cn1c(=O)c(C(=O)NNC(=O)c2ccccc2Br)c(O)c2ccccc21 | 9.93 |
| CCc1ccc(OCC(=O)N/N=C(\C)c2ccc(-n3ccnc3)cc2)cc1 | -7.7 |
| COc1ccc(C2CC(c3ccc(OC)c(OC)c3)=NN2S(C)(=O)=O)cc1 (centres unmarked) | 4.81 |
| CCN(CC)S(=O)(=O)c1cccc(C(=O)N[C@H](C(=O)OCC(=O)NC(=O)NC)C(C)C)c1 | 5.78 |
| COc1ccc(-c2nnc(SCC(=O)Oc3ccc(C)cc3)o2)cc1 | 7.8 |
| Cc1ccc2nc(NC(=S)NC(=O)c3ccc(OC(C)C)cc3)sc2c1 | 11.4 |
| CCCNC(=O)c1c(N)n(-c2cc(OC)cc(OC)c2)c2nc3ccccc3nc12 | 1.39 |
| CC(c1nccs1)N(C)C(=O)CCc1nnc(-c2ccc(-c3ccccc3)cc2)o1 (centres unmarked) | 4.66 |
| Cc1nonc1NC(=O)CSc1nnc(-c2ccoc2C)n1CC(C)C | 7.29 |
| COc1ccc(CCNC(=O)CSc2nc(N)c(C#N)c(-c3cccs3)c2C#N)cc1OC | 11.8 |
| S=C(NNc1nc(Nc2ccccc2)nc(N2CCCCC2)n1)NC1CCCCC1 | 16.2 |
| O=C(CCl)N(c1ccc(Cl)cc1)c1c[nH]c2ccccc12 | 12 |
| Fc1ccc(C2c3cccn3CCN2C(=S)Nc2cccc(Br)c2)cc1 (centres unmarked) | 20 |
| COC(=O)c1cccc(NC(=O)Nc2ccc(Cl)cc2Cl)c1 | 13.8 |
| O=C(c1cccnc1)N1N=C(c2cccs2)CC1c1ccc(F)cc1 (centres unmarked) | 2.99 |
| Cc1cccc(/C=N/Nc2ccc3ccccc3n2)c1 | 4.22 |
| CC/C(C)=N\NC(=O)CNC(=O)c1ccc(Cl)cc1Cl | 0.352 |

| Compound | hERG current change (%, negative = inhibition) at 1uM [%] |
| --- | --- |
| Cc1ccc(SCc2cc(=O)[nH]c(SCC(=O)Nc3cc(Cl)ccc3Cl)n2)cc1 | 23.3 |
| Cc1ccc(NC(=O)C(=O)NC2CCCCC2)cc1 | 14.1 |
| Cc1cc([N+](=O)[O-])nn1CC(=O)NCc1cccs1 | 8.25 |
| Nc1nonc1-n1nnc(C(=O)N/N=C/c2ccco2)c1-c1ccccc1 | 9.78 |
| Cc1ccc(S(=O)(=O)N2CCOCC2)cc1NC(=O)COC(=O)Cc1cccs1 | -13.7 |
| COc1ccc(N(CC(=O)N2CCN(c3ccccc3F)CC2)S(=O)(=O)c2c(C)n[nH]c2C)cc1 | -3.21 |
| COC(=O)N1CCN(c2ccc(C)c(C)c2)CC1 | -6 |
| COc1ccccc1-n1c(CNC(=O)c2ccccc2)nnc1SCC(=O)Nc1nnc(C)s1 | 13.4 |
| CCC(=O)Nc1cccc(C(=O)/C=C/c2ccccc2)c1 | 0.148 |
| CCCCNC(=S)N(CCCO)Cc1cc2cc3c(cc2[nH]c1=O)OCCO3 | 6.85 |
| O=C1CCC(=O)N1CC(=O)N(c1ccccc1)c1ccccc1 | -1.34 |
| CCCCCOC(=O)C(C)Sc1n[nH]c(=O)[nH]c1=O (centres unmarked) | 7.7 |
| CC1=NN(C(=O)Cc2ccc([N+](=O)[O-])cc2)C(O)(c2ccccc2)C1 (centres unmarked) | 3.62 |
| CN(C)CCNc1c2c(nc3nnnn13)CCCC2 | 2.28 |
| CCOc1ccc(NC(=O)CN(C)C(=O)c2cccnc2Sc2ccc(C)c(C)c2)cc1OCC | 5.82 |
| CCN1C(=O)[C@H]2[C@@H](c3ccc(C)cc3)N3C(=O)N(c4ccc(OC)cc4)C(=O)[C@@]3(CC)[C@H]2C1=O | 15.6 |
| Cc1nn(CC(=O)NC(C)c2ccccc2)c(=O)c2ccccc12 (centres unmarked) | 17.6 |
| CCN(CC)C(=O)C(=O)c1cccn1-c1cccc(-n2cccc2C(=O)C(=O)N(CC)CC)c1C#N | 15.2 |
| CCN1C(=O)C(O)(CC(=O)/C=C/C=C/c2ccccc2)c2ccccc21 (centres unmarked) | 7.97 |

| Compound | hERG current change (%, negative = inhibition) at 1uM [%] |
| --- | --- |
| CCCCSc1nnc(-c2ccc(C)cc2)o1 | 9.78 |
| COc1ccc(NC(=O)CSc2nccn2-c2ccccc2)c(OC)c1 | 7.53 |
| O=c1cc(-c2ccccc2)c2cc3c(cc2[nH]1)OCCO3 | 16 |
| Cc1nc([N+](=O)[O-])cn1C(C)C | 11.6 |
| CCOc1ccc(NC(=O)c2cc(=O)[nH]c3ccccc23)cc1 | 9.69 |
| Cc1ccc2c(c1)sc1nc(=O)n(-c3ccc(Cl)c(Cl)c3)c(=O)n12 | 8.13 |
| CO/N=C/NC(=O)c1cn(-c2ccc(F)cc2)c(=O)c2ccccc12 | 7.78 |
| O=C(NCc1ccccc1OC(F)(F)F)C1CCC(=O)N(Cc2cccc(F)c2)C1 (centres unmarked) | 9.17 |
| Cc1noc(C)c1COC(=O)c1ccc2c(c1)OCO2 | 7.03 |
| Cc1cccc2nc(CSc3ccccc3N)cn12 | 4.45 |
| COc1c(OC(C)=O)c(=O)n2c3ccccc3c3ccnc1c32 | 10.1 |
| Cc1cc(C)n(-c2ccc(NC(=O)C3CCCCN3C(=O)c3ccc(C)s3)cc2)n1 (centres unmarked) | 8.63 |
| COc1ccc(C(=O)Nc2ccccc2N2CCCC2)cc1 | -9.98 |
| Cc1ccc(N2C=Nc3ccc(C)c4nc(C)cc2c34)cc1 | 0.692 |
| Cn1c(O)c(C=NCc2ccco2)c(=O)n(C)c1=O | -4.48 |
| O=c1c(-c2ccccc2)nc(-c2ccccc2)cn1O | 6.43 |
| CCNc1nc(NCC)nc(OCCOC(=O)c2ccccc2)n1 | -2.13 |
| O=C(Nc1ccc(Cl)cc1)[C@@H]1[C@@H]2C(=O)N(c3ccc4ccccc4c3)C(=O)[C@@H]2[C@H]2C=CC=NN21 | -0.317 |
